The text below walks through data of the supplement of paper PMC10338343.

± gives the standard deviation. Only a part is listed here, and it is no random draw.
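Note: 1 nM active piRISC with 0.1 nM target library at 33 °C single turnover.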

This experiment deals with MIWI (PIWIL1) piRISC loaded with piRNA #1 (30 nt). The experiment can be described thus: pre-steady-state target cleavage rate (min^-1); MIWI and MILI are mouse PIWI proteins and EfPiwi is from a freshwater sponge; tags in brackets are library labels; higher = faster piRNA-guided slicing of the target. Conditions: guide: piRNA #1 5'p-UGAGGUAGUAGGUUGUAUAGUAUCCAGAGG; auxiliary factor: 500 nM mouse GTSF1. Summed up: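 At 33 °C in HEPES–potassium acetate buffer, a transcribed, DNA-blocked target RNA library […] was exposed for 0–8 or 0–960 min to 1 nM active affinity-purified piRISC carrying a single synthetic guide, with or without 500 nM GTSF1 partner protein. Uncleaved targets were sequenced and normalised to depth and to weakly complementary targets. With three trials pooled and k3 capped at 0.0001 min^-1, a burst-and-steady-state fit produced the pre-steady-state cleavage rate.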
Regarding GGAGACGAUUCAAUACAACCUACUACCUCA, the “pre-steady-state target cleavage rate” value was 0.502 ± 0.063.
With GGAGACCUUACUAUUCAACCUACUACCACA, the “pre-steady-state target cleavage rate” value amounted to 0.824 ± 0.085.
Consider GGUCUGGAUUCUAUACAACGUACUACCUCA, for which the “pre-steady-state target cleavage rate” value turned out to be 0.989 ± 0.06.
In the case of GCUGUGGAUACUAUACAACCAACUACCUCA, the “pre-steady-state target cleavage rate” value was found to be 0.15 ± 0.015.
Turning to GGAGACCAUAGCUAUACAACCUACUACCUCA, the “pre-steady-state target cleavage rate” value was 1.07 ± 0.082.
Consider GGAGACCAUACUAUACUACCUACUACCACA, for which the “pre-steady-state target cleavage rate” value stood at 1.05 ± 0.096.
Then GGAGACCUAUCUAUACAACCUACUAGCUCA, with 0.517 ± 0.046; and GGAGUGGAUACUUAUACAACCUACUACCUCA, with 1.39 ± 0.1; and GGAGACCUUACUAUUCAACCUACAACCUCA, with 0.258 ± 0.029.
Then CCUCUGGAUACUAUACAACCUAGAUCCUCA, with 0.0633 ± 0.016; and GGAGACCAUACAUUACAACCUACUACCUCA, with 0.32 ± 0.055; and GGAGUCGAUAGUAUACAACCUACUACCUCA, with 0.994 ± 0.061.
In the case of GGAGACCAUCUAUACAACCUACUACCUCA, the “pre-steady-state target cleavage rate” value is 1.02 ± 0.1.
With GGAGAGGAUUCUAUACAACCUACUAGCUCA, the “pre-steady-state target cleavage rate” value was 0.154 ± 0.024.
Then GCUCUGGAUACUAUACAACCUAGUACCUCA, with 0.452 ± 0.062.
For the sequence GGACUGGAUACUAUACAACGUACUACCUGA, the “pre-steady-state target cleavage rate” value was 0.377 ± 0.047.
Turning to GGAGAGGAUAUCUAUACAACCUACUACCUCA, the “pre-steady-state target cleavage rate” value turned out to be 0.726 ± 0.039.
Then GGAGUGGAUACUAUACAACCUACUAACUCA, with 0.0789 ± 0.011; and GGAGACCUAUCUAUACAACCUAGUACCUCA, with 0.237 ± 0.034.
As to GGAGAGGAUACUAUACAACCUACUAACUCA, the “pre-steady-state target cleavage rate” value came to 0.363 ± 0.044.
In the case of CCUCUGGAUACUAUACAACCUACUACCUGA, the “pre-steady-state target cleavage rate” value was 0.831 ± 0.11.
As for CCUCUGCAUACUAUACAACCUACUACGUCA, the “pre-steady-state target cleavage rate” value stood at 1.62 ± 0.14.
The result for GGAGUGGAUACAUAACAACCUACUACCUCA reads 0.621 ± 0.071; that for GGAGUGCAUACUAUACAACCAACUACCUCA, 0.116 ± 0.0099; that for GGAGAGGAUACUAUUGUACCUACUACCUCA, 0.111 ± 0.016.
Then GCUCUGGAUACUUACAACCUACUACCUCA, with 1.18 ± 0.1.
GCUCUGGAUACUAUGCAACCUACUACCUCA: the “pre-steady-state target cleavage rate” value came to 1.84 ± 0.1.
In the case of GGAGACCUAUCUAUACAACCUAGUACCACA, the “pre-steady-state target cleavage rate” value was 0.184 ± 0.035.
Turning to GGAGACCUAUGUAUACAACCUACUUGCUCA, the “pre-steady-state target cleavage rate” value worked out at 0.0161 ± 0.0031.
Regarding GGAGAGGAUACUAUACAAACUACUACCUCA, the “pre-steady-state target cleavage rate” value was 0.432 ± 0.029.
As for GGUCUGGAUACUUACAACCUACUACCUCA, the “pre-steady-state target cleavage rate” value worked out at 0.902 ± 0.093.
For the sequence GGACUGGAUACUAUACAAACUACUACCUCA, the “pre-steady-state target cleavage rate” value was determined as 0.914 ± 0.042.
With GGAGACCUUACUAUACAAGCAACUACCUCA, the “pre-steady-state target cleavage rate” value is 0.0142 ± 0.0025.
Take GGAGAGGAUACAAUACAACCUACUACGUCA: the “pre-steady-state target cleavage rate” value stood at 0.391 ± 0.03.
Take GGAGACGAUACUAUACAACCUGACUACCUCA: the “pre-steady-state target cleavage rate” value turned out to be 0.00519 ± 0.0015.
Then GGAGAGGAUACUAUACAACCUACUACAUCA, with 0.568 ± 0.047; and GCGCUGGAUACUAUACAACCUACUACCUCA, with 1.85 ± 0.1; and GGUCUGGAUACUAUACAACCUACUCCUCA, with 0.00309 ± 0.0017.
Consider CCUCUGGAUACUAUACAACCUACUAGCUGA, for which the “pre-steady-state target cleavage rate” value is 0.308 ± 0.046.
On to GGAGACCUAUCUAUACAUCCUACUACCUCA, for which the “pre-steady-state target cleavage rate” value was 0.47 ± 0.042.
